# Screen size: about 310,000 compounds; about 18,000 (5.8%) were called active. The shares of active, inactive and inconclusive entries below differ from those in the screen. Calls follow the shape of the dose curve; as a rule, active = well fitted inhibition curve with a large enough effect; inconclusive = small, poorly fitted or top-dose-only effect, or another doubt; inactive = no such curve, though single readings can be large or run the other way. Potencies of inconclusive entries are left out as doubtful fits.
# Assay: Primary qHTS for delayed death inhibitors of the malarial parasite plastid, 48 hour incubation
# Details: P. falciparum luciferase growth in erythrocytes; series mostly up to 28.7 µM
# Method in brief: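 Firefly luciferase activity from engineered P. falciparum reports growth; inhibitors lower the luminescent signal. Cultures contained 2% hematocrit erythrocytes at 0.1% final parasitemia.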
# Potency is read from the fitted curve at half-maximal effect; tags tell the direction and shape of the fitted curve.
row,Structure (SMILES),Potency
1,COc1cccc(C(=O)N2CCC(n3nccc3NC(=O)C3CCOC3)CC2)c1 (configuration not stated),inactive
2,COc1cc(C(C)=O)ccc1Oc1ccc(S(=O)(=O)N2CCOCC2)cn1,inactive
3,COc1ccccc1NC(=O)C(=O)c1cn(CC(=O)N2CCOCC2)c2ccccc12,inactive
4,Cc1cccc(N2C(=O)N3[C@H](c4ccc(F)cc4)[C@@H]4C(=O)N(C5CCCCC5)C(=O)[C@@H]4[C@]3(Cc3ccc(Cl)cc3)C2=O)c1,"inconclusive [inhibitor, partial curve, poor fit]"
5,C[C@@H]1CC[C@]2(C(=O)O)CC[C@]3(C)C(=CCC4[C@]56CC[C@@](O)(OC5)C(C)(C)C6CC[C@]43C)C2[C@H]1C (some centres not stated),"inconclusive [inhibitor, single point]"
6,Cc1oc2c(CN3CCOCC3)c(O)ccc2c(=O)c1-c1ccc(Cl)cc1,"inconclusive [inhibitor, partial curve, poor fit]"
7,O=C(NCCS(=O)(=O)N1CCN(c2ccccc2F)CC1)c1cccs1,"inconclusive [inhibitor, single point]"
8,C/C(=N\NC(=O)c1ccc(CN2CCc3ccccc3C2)cc1)c1ccccc1O,"inconclusive [inhibitor, single point]"
9,Oc1ccccc1/C=N/N1CCN(c2ccccn2)CC1,inactive
10,CNc1sc(C(=O)c2cccs2)c(N)c1-c1nc2ccccc2s1,inactive
11,CC(NC(=O)c1cc2ccccc2oc1=O)c1ccccc1 (configuration not stated),inactive
12,CC(C)NC(=O)C(=O)c1cn(C)c2ccccc12,inactive
13,CC(C)(C)OC(=O)NC(Cc1ccccc1)C(=O)N1CCC(C(=O)NCC(=O)Nc2ccc(F)cc2)CC1 (configuration not stated),"inconclusive [inhibitor, partial curve]"
14,COc1ccc(OC)c(/C=C/C(=O)NCCc2nc3ccccc3[nH]2)c1,"inconclusive [inhibitor, single point]"
15,Cc1ccc(NC(=O)C2C3CCCCC32)cc1[N+](=O)[O-] (configuration not stated),inactive
16,CCS(=O)(=O)c1nc(S(=O)(=O)c2ccc(Cl)cc2)c(N2CCOCC2)s1,"inconclusive [inhibitor, partial curve, poor fit]"
17,O=C(NC1CCN(C(=S)Nc2ccccc2)CC1)C1CCCCC1,inactive
18,Cc1ccc(C(=O)NC(C)c2ccc(-n3ccnc3)cc2)cc1S(=O)(=O)N1CCOCC1 (configuration not stated),"inconclusive [inhibitor, single point]"
19,O=C(Nc1ccc(Cl)cn1)c1cccnc1,inactive
20,CCOc1ccc(OCC)c(NC(=O)C2CCCN(S(=O)(=O)c3ccc(C)cc3)C2)c1 (configuration not stated),"inconclusive [inhibitor, partial curve]"
21,O=C(Nc1nnc(C(F)(F)F)s1)c1c(F)cccc1F,"inconclusive [inhibitor, full curve]"
22,CCCOc1ccc(/C=N/n2nnnc2N)cc1OC,inactive
23,Cc1ccc(S(=O)(=O)NC2(C(F)(F)F)NC(=O)N(c3ccccc3F)C2=O)cc1 (configuration not stated),inactive
24,CCS(=O)(=O)n1nc(-c2ccc(C)cc2)nc1N,inactive

row,Structure (SMILES),Potency
1,O=C(N/N=C/c1ccc(Cl)c([N+](=O)[O-])c1)c1cnccn1,inactive
2,Cc1cc(C(=O)CN2C(=O)NC(c3ccccc3)(c3ccccc3)C2=O)c(C)n1Cc1ccco1,active: 1.31 µM
3,O=C(Cc1ccc(-c2ccccc2)cc1)NC(c1ccccc1)c1ccccc1,active: 13.1 µM
4,CC(C)(C)[C@H]1C=C(C(=O)N2CCN(Cc3ccccc3)CC2)O[C@@H](OCCCCO)C1,"inconclusive [inhibitor, partial curve, poor fit]"
5,COc1cc(/C=N/NC(=O)NC2CCCCC2)cc(OC)c1O,inactive
6,CCOC(=O)C1CCN(C(=O)COC(=O)c2ccc3[nH]c4c(c3c2)CCCC4)CC1,"inconclusive [inhibitor, single point]"
7,COC(=O)c1[nH]c2ccccc2c1NC(=O)CN1CCN(Cc2ccc3c(c2)OCO3)CC1,"inconclusive [inhibitor, single point]"
8,S=C=Nc1cccc(C2(N3CCCCC3)CCCCC2)c1,active: 2.62 µM
9,O=C(N/N=C/c1ccc([N+](=O)[O-])s1)c1ccncc1,active: 4.65 µM
10,COc1ccc(OCC(=O)Nc2cc(OC)ccc2N2CCCCC2)cc1,active: 11.7 µM
11,Cc1ccc(NC(=O)NC2C(NC(=O)Nc3ccc(C)cc3)N(C)C(=O)N2C)cc1 (configuration not stated),inactive
12,COCCCNc1oc(-c2ccccc2OC)nc1C#N,inactive
13,COC(=O)C1=C(C(=O)OC)[C@@H]2Nc3ccccc3[C@@]23C[C@@H](C(=O)OC)N(C(C)=O)C3=N1,inactive
14,CC(C)(C)c1csc(NC(=O)Cc2ccc(S(=O)(=O)N3CCOCC3)s2)n1,"inconclusive [inhibitor, single point]"
15,CCOC(=O)c1ccccc1NC(=S)N1CCC(C)CC1,"inconclusive [inhibitor, partial curve, poor fit]"
16,Cc1cnc(C(=O)OC(C)C(=O)c2c(C)[nH]c3ccccc23)cn1 (configuration not stated),"inconclusive [inhibitor, single point]"
17,O=C(c1cc([N+](=O)[O-])cc([N+](=O)[O-])c1)N1CCCc2ccccc21,"inconclusive [inhibitor, single point]"
18,CS(=O)(=O)N(CC(=O)NCCSc1ccccc1)c1ccc2c(c1)OCO2,"inconclusive [inhibitor, partial curve, poor fit]"
19,Cc1nc2c(oc3ccccc32)c(=O)o1,"inconclusive [inhibitor, single point]"
20,CC(=O)c1ccc(NC(=O)C(C)Sc2nnc(C3CC3)n2C2CC2)cc1 (configuration not stated),"inconclusive [inhibitor, partial curve, poor fit]"
21,CCOC(=O)N1CCC(N2C(=O)c3ccc(C(=O)NCc4ccco4)cc3C2=O)CC1,inactive
22,CC1(c2ccccc2)ON(c2ccccc2C(F)(F)F)C1=O (configuration not stated),active: 4.15 µM
23,COc1ccccc1N(CC(=O)N(C)Cc1ccccc1)S(=O)(=O)c1cccs1,"inconclusive [inhibitor, single point]"

# From PubChem BioAssay AID504832 (National Center for Advancing Translational Sciences (NCATS), 2011)
